According to article PMC5093130, “Ginkgotides: Proline-Rich Hevein-Like Peptides from Gymnosperm Ginkgo biloba” (Frontiers in Plant Science, 2016):
Bridge positions count the residues as written; N and C are the ends. Ends that are not written are not given here.

Assays:
[1] = test system: various fungal strains; settings: ref Fujimura et al., 2003; cited from earlier work
[2] = Chitin-binding assay with chitin beads; settings: 40 μM peptide, 60 μL chitin beads, buffer pH 8.0, room temperature, 4 h; elution 500 mM acetic acid pH 3.0; UPLC and MALDI-TOF MS
[3] = Heat stability assay; type: physicochemical; settings: 200 μM, water bath 100°C, 1 h; RP-UPLC/RP-HPLC
[4] = test system: Aspergillus niger; experiment: Micro-broth dilution assay, methylene blue read-out; type: cell-based; settings: A. niger, spores in half-strength potato dextrose broth, 24 h, 25°C, absorbance 640 nm
[5] = test system: Curvularia lunata; experiment: as above; type: cell-based; settings: C. lunata, spores in half-strength potato dextrose broth, 24 h, 25°C, absorbance 640 nm
[6] = test system: Rhizoctonia solani; experiment: as above; type: cell-based; settings: R. solani, spores in half-strength potato dextrose broth, 24 h, 25°C, absorbance 640 nm
[7] = test system: Fusarium oxysporum; experiment: as above; type: cell-based; settings: F. oxysporum, spores in half-strength potato dextrose broth, 24 h, 25°C, absorbance 640 nm
[8] = test system: aminopeptidase I; experiment: Exoproteolytic enzyme stability assay (aminopeptidase); type: in vitro ADME; settings: 20 mM tricine, 0.05% BSA pH 8.0, 20 U/mL aminopeptidase I, 37°C, RP-UPLC, read-out: peptide remaining after aminopeptidase digestion
[9] = test system: carboxypeptidase A; experiment: Exoproteolytic enzyme stability assay (carboxypeptidase A); type: in vitro ADME; settings: 50 mM Tris-HCl, 100 mM NaCl, 100 nM carboxypeptidase A, 37°C, RP-UPLC, read-out: peptide remaining after carboxypeptidase A digestion
[10] = test system: trypsin; experiment: Endoproteolytic enzyme stability assay (trypsin); type: in vitro ADME; settings: 100 mM ammonium bicarbonate pH 7.8, 37°C, RP-UPLC, read-out: peptide remaining after trypsin digestion

**Q.** Which IC50 range [1] does the source give for “-AQCGAQGGGATCPGGLCCSQWGWCGSTPKYCG--AGCQSNCK---- (bicyclic or more) [Fa-AMP1, 8C-hevein-like peptide from buckwheat Fagopyrum esculentum]” here?
**A.** 11 to 36 µg/mL

**Q.** Which “chitin-binding (peptide in supernatant vs acidic elution buffer)” value [2] does the source give for “DPTCSKLGD-FKCNPGRCCSKFNYCGSTAAYCGP-GNCIAQCP---- (bicyclic or more) [gB8, 8C-hevein-like peptide (ginkgotide) isolated from Ginkgo biloba leaves]” here?
**A.** absent in the supernatant but were recovered in the acidic elution buffer

**Q.** For “DPTCSKLGD-FKCNPGRCCSKFNYCGSTAAYCGR-GNCIAQCP---- (bicyclic or more) [gB3, 8C-hevein-like peptide (ginkgotide) isolated from Ginkgo biloba leaves]”, which “chitin-binding (peptide in supernatant vs acidic elution buffer)” value [2] is on record?
**A.** absent in the supernatant but were recovered in the acidic elution buffer

**Q.** For “DPTCSVLGDFKCNPGRCCSKFNYCGSTAAYCGPGNCIAQCP (disulfide 4-18, 12-24, 17-31, 36-40) [gB5]”, which “peptide remaining after boiling water” value [3] is on record?
**A.** 80%

**Q.** And the IC50 [4]?
**A.** 6.8 µg/mL

**Q.** What about the IC50 [5] of the same substance?
**A.** 10.0 µg/mL

**Q.** What about the IC50 [6] of the same substance?
**A.** 20.0 µg/mL

**Q.** What about the IC50 [7] of the same substance?
**A.** 69.2 µg/mL

**Q.** What about the remaining at 6 h, 200 μM [8] of the same substance?
**A.** > 95%

**Q.** What about the remaining at 6 h, 200 μM [9] of the same substance?
**A.** > 95%

**Q.** And the remaining at 6 h, 200 μM [10]?
**A.** > 95%
